From PubChem BioAssay (NCI)
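Briefly, cells in 96-well plates were exposed to five compound concentrations for 48 h, and endpoints were estimated by linear interpolation. GI50 is the concentration that inhibits growth by half. TGI: concentration producing complete growth inhibition.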

Each compound was assayed on NCI-H322M lung (assay: NCI anticancer screen, dose series, 48 h).
For `C1=CC(=[N+]2N=C(c3ccccc3)CC2c2ccccc2)C=CC1=C1SC(c2ccccc2)(c2ccccc2)c2ccccc21` (stereo unspecified), the TGI was > 100 µM.
With `CC(=O)OC1CCC2(C)C(=CCC3C4CCC5(OC6CC(C)CN(C(C)=O)C6C5C)C(C)=C4C(=O)C32)C1` (stereo unspecified) the TGI was 41 µM.
In the case of `CCCN1C(=O)CSC1=Nc1ccc2cc3ccc(N=C4SCC(=O)N4CCC)cc3nc2c1`, the GI50 is reported as 54.5 µM and the TGI is reported as > 100 µM.
`CN1CCN(c2ccc(NC3=C(Cl)C(=O)c4ncccc4C3=O)cc2C#N)CC1` gave a GI50 of 13.8 µM and a TGI of 26.7 µM.
With `COc1ccc(NS(=O)c2ccccc2OC)cc1` (stereo unspecified) the TGI was > 100 µM.
In the case of `Cc1n[nH]c(=O)n1/N=C/c1ccncc1`, the TGI is reported as > 100 µM.
With `COC(=O)c1ccccc1C1CN=NC12Cc1cc(C)c(C)cc1C2=O` (stereo unspecified) the TGI was > 100 µM.
In the case of `O=C(O)C(O)C(O)C(O)C(=O)CO` (stereo unspecified), the TGI is reported as > 100 µM.
For `O=C(O)/C(=C\c1ccccc1Cl)S(=O)(=O)c1ccccc1`, the TGI was > 100 µM.
With `Cc1nc2ncn3c(c-2c1Cc1ccccc1)NC=C(O)N3` the TGI was > 100 µM.
`CCCCCCCCCCCCCC(=O)C(C)N` (stereo unspecified) showed a GI50 of 6.9 µM and a TGI of 20.9 µM.
Work on `COC(=S)OC1CC(n2cnc3c(N)ncnc32)OC1CO[Si](C)(C)C(C)(C)C` (stereo unspecified) yielded a TGI of 49.9 µM.
For `CCN(CC)Cc1cc(Nc2c3ccccc3nc3c4ccccc4n(C)c23)ccc1O`, the TGI was 24.5 µM.
With `CC1CCP(=O)(c2ccccc2)CC1` (stereo unspecified) the TGI was > 100 µM.
With `CC(=O)C(=[N+]=[N-])C(=O)OCCOC(=O)C(=[N+]=[N-])C(C)=O` the TGI was > 1 µM.
Compound `C(=C\c1nccc2c1[nH]c1ccccc12)/c1ccccc1` has a GI50 of 6.19 µM and a TGI of 56.2 µM.
In the case of `O=C1CC2(CCC(O)(c3cccs3)C(C(=O)c3cccs3)C2)C(=O)c2ccccc2N1` (stereo unspecified), the TGI is reported as > 100 µM.
With `COc1ccc(-c2nnc(N3CCN(C(=O)CN4CCN(c5ccc(Cl)cc5)CC4)CC3)nc2-c2ccc(OC)cc2)cc1` the GI50 was > 100 µM and the TGI was > 100 µM.
`C#C[C@H](CCCC)OC(=O)N[C@H](C)c1ccccc1` was tested, and the TGI was > 100 µM.
`CCCCCC(O)(CCCCC)CCCCCCCCC1=C(O)c2[nH]c(=O)ccc2C(=O)C1=O` gave a TGI of 16.2 µM.
For `C[C@@H](Oc1ccc2[nH]nc(/C=C/c3cnn(CCO)c3)c2c1)c1c(Cl)cncc1Cl`, the GI50 was 0.756 µM and the TGI was 4.33 µM.
In the case of `CCOC(=O)/C(C[C@H]1OC(C)(C)O[C@@H]1[C@H]1COC(C)(C)O1)=N/O`, the TGI is reported as > 100 µM.
In the case of `NC(=S)N/N=C\c1nccc2c(N)cccc12`, the GI50 is reported as 0.328 µM.
With `COC(=O)c1nc(-c2nc(CCNC(=O)OC(C)(C)C)sc2Cl)sc1Cl` the TGI was > 100 µM.
In the case of `COc1cc(/C=C2\CN(S(=O)(=O)c3ccccc3)C/C(=C\c3cc(CN4CCCCC4)c(O)c(OC)c3)C2=O)cc(CN2CCCCC2)c1O`, the GI50 is reported as 1.7 µM and the TGI is reported as 3.12 µM.
For `COc1ccc(Cl)cc1NC(=O)c1cccc([N+](=O)[O-])c1O`, the TGI was > 82.6 µM.
For `O=c1c2ccccc2nc(-c2ccccc2)n1O`, the TGI was > 100 µM.
`CCN(CC)CCOc1ccc2c(c1)C(=O)c1cc(OCCN(CC)CC)ccc1-2` was tested, and the GI50 was 12.5 µM and the TGI was 67.9 µM.
In the case of `COc1ccc(CC(NC(=O)[C@H](C)NC(=O)CN2CCOCC2)C(=O)N[C@@H](Cc2ccccc2)C(=O)[C@@]2(C)CO2)cc1` (stereo partly specified), the GI50 is reported as 1.25 µM and the TGI is reported as 5.71 µM.
For `CS(=O)(=O)CCn1c(=O)c(Oc2ccc(F)cc2F)cc2cnc(NC3CCOCC3)nc21`, the GI50 was > 25 µM and the TGI was > 25 µM.
`CCNc1nc2c(ncn2C2CC(O)C(COP(=O)(O)O)O2)c(=O)[nH]1` (stereo unspecified) was tested, and the TGI was > 100 µM.
With `O=S(=O)(NC1OCCCC1I)c1ccccc1` (stereo unspecified) the TGI was > 100 µM.
For `O=C(O)c1cc(O)c2c(c1)C([C@@H]1c3cccc(O)c3C(=O)c3c(O)cc(C(=O)O)cc31)c1cccc(O)c1C2=O` (stereo partly specified), the TGI was > 100 µM.
For `COc1cc2c(cc1C)NC(=O)/C2=C/c1c(Cl)n(-c2ccccc2)c2ccccc12`, the TGI was > 100 µM.
For `CCOc1ccc2ccc3cccnc3c2n1`, the TGI was > 100 µM.
For `O=C(O)Cn1c(=O)[nH]c(=O)c2[nH]cnc21`, the TGI was > 100 µM.
With `C/C(=N\Nc1nc2ccccc2o1)c1cc(C)ncn1` the TGI was > 84.2 µM.
For `CC1CN=C(NS(=O)(=O)c2cc(C(=O)Nc3ccc(F)cc3)c(Cl)cc2S)NN1` (stereo unspecified), the TGI was > 100 µM.
With `Cc1cccc2c1O/C(=C\c1ccc([N+](=O)[O-])o1)C2=O` the GI50 was 3.6 µM and the TGI was 16.4 µM.
`COc1cc2c([C@@H](OC(=O)c3ccccc3)c3ccc4c(c3)OCO4)nccc2c(OC)c1OC` was tested, and the TGI was > 100 µM.
In the case of `CCCCCCNc1nc(N2CCOCC2)c2[nH]c(NCCCCCC)nc2n1`, the GI50 is reported as 1.81 µM and the TGI is reported as 3.6 µM.
For `CCOC(=O)CCC(NC(=O)c1ccc(Nc2cnc3ccc(C(F)(F)F)cc3n2)cc1)C(=O)OCC` (stereo unspecified), the TGI was > 85.6 µM.
`O=S(=O)(O)c1cc(N=[N+]([O-])c2cc(S(=O)(=O)O)c3ccccc3c2)cc2ccccc12` was tested, and the TGI was > 100 µM.
Compound `CC1(C)CCC[C@]2(C)[C@@H]1CC[C@@]13O[C@@H]1C1=C(CO)C(=O)OC1=C[C@@H]23` has a TGI of 43.8 µM.
For `Nc1nc(NCC2(CO)CCC2)cc(=O)[nH]1`, the TGI was > 100 µM.
`Cn1c2ccccc2n2c3ccccc3c(=O)c(C#N)c12` gave a TGI of 73.8 µM.
In the case of `CC(C)(C)OC(=O)CN1CCc2c(sc3ncnc(N/N=C/c4cccc5ccccc45)c23)C1`, the GI50 is reported as 3.46 µM and the TGI is reported as > 33.3 µM.
`CCOP(=O)(OCC)[C@]12C[C@@H](C)C=C[C@H]1COC2=O` was tested, and the TGI was > 100 µM.
For `COc1ccc(C2c3cc4c(cc3OC(O)(CO)C2C(=O)O)OCO4)cc1` (stereo unspecified) (tested in a mixture with another compound), the TGI was > 100 µM.
`O=C(NNS(=O)(=O)c1ccc(F)cc1)c1cccnc1Nc1ccc(Cl)cc1Cl` was tested, and the GI50 was 31.1 µM and the TGI was > 100 µM.
For `CCOC(=O)N[C@H]1CCc2c(Br)c(OC)c(OC)c(OC)c2-c2ccc(SC)c(=O)cc21`, the GI50 was < 0.0114 µM and the TGI was > 75.9 µM.
For `CC(=O)[C-](C(C)=O)c1ccccc1.CC(=O)[C-](C(C)=O)c1ccccc1.CC[O-].CC[O-].[Ti+4]`, the GI50 was > 100 µM and the TGI was > 100 µM.
With `CC(=O)Oc1cc(C)c(OC(C)=O)c2c1[C@H]1CC[C@]3(C)[C@@H](OC(C)=O)CC[C@H]3[C@@H]1CC2` the TGI was 28.7 µM.
With `CCC1(N=[N+]=[N-])C(=O)c2ccccc2N(c2ccccc2)C1=O` (stereo unspecified) the TGI was > 100 µM.
Compound `CC(=O)c1cc2c(c3ccsc13)-c1ccccc1CC2` has a GI50 of 24.7 µM and a TGI of 88.1 µM.
With `COC(OC)C1OC(CO)C(n2cc(F)c(=O)[nH]c2=O)C1O` (stereo unspecified) the TGI was > 100 µM.
With `Cc1cccc(C)c1NC(=O)CCC(=O)NC(N)=S` the TGI was > 100 µM.
In the case of `C[C@@H]1OC(=O)C[C@H]2CC(=O)N(CCC3CN(S(=O)(=O)C(F)(F)F)c4ccccc43)C[C@@H]21` (stereo partly specified), the TGI is reported as > 100 µM.
`C#C[C@]1(O)CC[C@H]2[C@@H]3CCC4=C/C(=N\OCCN(CC)CC)CC[C@]4(C)[C@H]3CC[C@@]21C` was tested, and the TGI was 23.6 µM.
With `CCCCN(CCCC)C(=O)C(=O)C(C)C(=O)CC` (stereo unspecified) the TGI was > 100 µM.
For `C#Cc1cccc(Oc2ccc(NC(=O)CCl)cc2)c1`, the GI50 was > 82.5 µM and the TGI was > 82.5 µM.
In the case of `Nc1cc(N2CCOCC2)nc(=O)n1-c1ccc(Cl)cc1`, the TGI is reported as > 100 µM.
For `C1=C(c2ccccc2)SC=C(c2ccccc2)S1`, the TGI was > 100 µM.
In the case of `COc1ccc(C(=O)COc2cccc(/C=C3\CSc4ccc(Cl)cc4C3=O)c2)cc1`, the GI50 is reported as 83.1 µM and the TGI is reported as > 100 µM.
With `COC(=O)c1ccccc1NC(=O)C(=O)CC(=O)CC(c1ccccc1)c1c(O)c2ccccc2oc1=O` (stereo unspecified) the TGI was > 100 µM.
`CC1(C)N=C(C(=O)c2ccccc2)N(O)C1(O)c1ccccc1` (stereo unspecified) was tested, and the TGI was > 100 µM.
In the case of `N#C/C(N)=C(\C#N)N=Cc1csc2ccccc12`, the GI50 is reported as 41 µM and the TGI is reported as > 100 µM.
In the case of `Cc1cc(=O)oc2c(C)c3oc(CBr)c(Br)c3cc12`, the TGI is reported as > 100 µM.
For `N[C@@H]1CCCC[C@@H]1N.O=C([O-])CN(CP(=O)([O-])[O-])CP(=O)([O-])[O-].[Pt+2]`, the GI50 was > 100 µM and the TGI was > 100 µM.
`CC1C=C[C@H](Sc2ccccc2)CC[C@@]1(C)O` (stereo partly specified) was tested, and the TGI was > 100 µM.
